Out of some 410,000 compounds screened, about 7,200 (1.8%) were called active. Inconclusive means that the source gave no clear call. Such entries were picked first, then a sample of the others. Calls come from the whole dose curve; as a rule, active = well fitted activation curve with a large enough effect; inconclusive = small, poorly fitted or top-dose-only effect, or another doubt; inactive = no such curve, though single readings can be large or run the other way. No potency is given beside an inconclusive call; the fits are too rough.
Assay: qHTS of TDP-43 Inhibitors; note: nearly all actives have a fitted effect of over 50% in size; for growth rescue (activation): % of control where 0% means no effect
Conditions: TDP-43 expressing yeast growth rescue, BacTiter-Glo, 24 h; growth rescue (activation): at 46.1 µM (top of the series) unless noted
Method in brief: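 In this qHTS, compounds that restore growth of yeast expressing TDP-43 appear as activators. Cells (OD600=0.02, galactose medium, raffinose-pregrown) are incubated with compound 24 hr at 30 deg C and growth is quantified by BacTiter-Glo.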
Potency is the fitted concentration of half-maximal effect; tags give direction and shape of the fitted curve.

Which Potency does the source give for `CCCC(C)NC(=O)c1ccc(OCc2ccc(Cl)cc2)c(OC)c1` (stereo not drawn) here?
Its Potency is active: 22.4 µM.

Which Potency does the source give for `COC(=O)[C@@]1(Cc2ccc(F)cc2)[C@H]2c3cc(C(=O)N(C)C)n(CCc4c[nH]c5ccc(OC)cc45)c3C[C@H]2CN1C(=O)c1ccccc1` here?
The Potency was inconclusive [activator, partial curve].

With `O=C(Nc1cccc(C(=O)Nc2ccc(Br)cc2)c1)c1ccccc1` as the compound, how does the Potency read?
Its Potency is “inactive”.

Which Potency does the source give for `O=c1oc2cc(O)ccc2c2c1CCCC2` here?
The Potency was active: 12.6 µM.

Which Potency does the source give for `Cc1ccc(CN2CCCn3nc(C(=O)NCCC(C)C)cc3C2=O)cc1` here?
Its Potency is “inactive”.

For `Cc1nc(C(=O)NC2CC2)sc1C1(C)CC(c2cccc([N+](=O)[O-])c2)=NO1` (stereo not drawn), which Potency is on record?
Its Potency is inconclusive [activator, single point].

For `O=C(Nc1ccc(Nc2ccccc2)cc1)c1ccccc1F`, which Potency is on record?
Its Potency is inconclusive [activator, single point].

Which Potency does the source give for `COC(=O)c1ccc(NC(=O)C2(S(=O)(=O)c3ccc(C)cc3)CC2)cc1` here?
Its Potency is inconclusive [activator, single point].

With `O=C(CSc1ccc(Cl)cc1)NCC1CCCO1` (stereo not drawn) as the compound, how does the Potency read?
Its Potency is inconclusive [activator, partial curve].

Which Potency does the source give for `Cc1ccc(NC(=O)c2ccc(N/N=C/c3cccc(O)c3)c([N+](=O)[O-])c2)cc1` here?
The Potency was “inactive”.

For `Cc1ccccc1C1(O)c2ccccc2-c2ccccc21`, which Potency is on record?
The Potency was inconclusive [activator, single point].

Which Potency does the source give for `COc1ccc(-c2noc(=O)n2Cc2ccccc2F)cc1` here?
The Potency was active: 12.6 µM.

For `Cc1ccc2cc(CN(c3ccccc3C)S(=O)(=O)c3ccccc3)c(=O)[nH]c2c1`, which Potency is on record?
The Potency was “inactive”.

With `COc1ccccc1NC(=O)CSc1nnc(-c2cccc(Cl)c2)o1` as the compound, how does the Potency read?
Its Potency is active: 17.8 µM.

Which Potency does the source give for `O=C(Nc1ccccc1)Nc1ccccc1Br` here?
Its Potency is inconclusive [activator, partial curve].

Which Potency does the source give for `COc1ccccc1Nc1nc(-c2cccnc2)cs1` here?
Its Potency is inconclusive [activator, single point].

For `CCCCCc1ccc(OCCCC[n+]2ccc(C)cc2)c(CCCCC)c1`, which growth rescue (activation) is on record?
Its growth rescue (activation) is inconclusive: -52.4% [activator].

With `Cc1ccc(Nc2c3c(nc4nncn24)CCC3)cc1` as the compound, how does the Potency read?
Its Potency is active: 15.8 µM.

For `COc1ccc(-c2c(C)nn3c(C)cc(C)nc23)cc1`, which Potency is on record?
Its Potency is active: 14.1 µM.

With `N#Cc1ccc(NC(=S)NC(=O)C2CCCCC2)cc1` as the compound, how does the Potency read?
The Potency was inconclusive [activator, partial curve].

Which Potency does the source give for `Brc1csc(CN2CCc3nc(Nc4ccccc4)ncc3C2)c1` here?
The Potency was inconclusive [activator, full curve].

With `CC1(C)CN2C(=S)N(c3ccccc3)C(c3ccccc3)N2C1` (stereo not drawn) as the compound, how does the Potency read?
Its Potency is inconclusive [activator, single point].

Which Potency does the source give for `Nc1c(SCCC(=O)O)ccc2c1C(=O)c1ccccc1C2=O` here?
The Potency was inconclusive [activator, partial curve].

With `Cc1ccccc1N=C1SCC(=O)N1Cc1ccccc1` as the compound, how does the Potency read?
Its Potency is inconclusive [activator, partial curve].

For `Cc1ccc(C)c(N(C)C(=O)c2cn(C)c(=O)c3ccccc23)c1`, which Potency is on record?
The Potency was “inactive”.

With `Cc1cc(C(=O)COC(=O)c2ccc[nH]c2=O)c(C)n1-c1ccccc1F` as the compound, how does the Potency read?
Its Potency is “inactive”.

Which Potency does the source give for `CCOC(=O)C1CCN(C(=O)c2oc3ccc(S(=O)(=O)N4CCCCCC4)cc3c2C)CC1` here?
Its Potency is inconclusive [activator, single point].

With `COc1ccc(OCC(=O)Nc2nc3c(s2)CCCC3)cc1` as the compound, how does the Potency read?
The Potency was inconclusive [activator, partial curve].

Which Potency does the source give for `Clc1ccc(CO/N=C2\CCCc3nonc32)cc1` here?
The Potency was inconclusive [activator, partial curve].

With `CCN(C(=O)Cn1c(C(=O)OC)cc2oc3ccccc3c21)c1cccc(C)c1` as the compound, how does the Potency read?
The Potency was “inactive”.

For `O=S(=O)(NCc1ccco1)c1cnc(Cl)c(Br)c1`, which Potency is on record?
The Potency was active: 14.1 µM.

Which Potency does the source give for `COc1ccc(NC(=O)C2Cc3c(-c4ccc(Cl)cc4)ccnc3O2)cc1OC` (stereo not drawn) here?
The Potency was active: 35.5 µM.

For `CC(=C/c1ccccc1)/C=N/n1c(-c2ccco2)n[nH]c1=S`, which Potency is on record?
Its Potency is active: 11.2 µM.

With `O=C(CS(=O)(=O)c1ccc(Cl)cc1)Nc1nccs1` as the compound, how does the Potency read?
Its Potency is inconclusive [activator, single point].

With `Cc1ccc(CC(=O)Nc2nc3c(s2)CCCC3)cc1` as the compound, how does the Potency read?
Its Potency is active: 15.8 µM.

With `Cc1ccc(-c2nc(CCNC(=O)C(=O)Nc3ccc(C)c(C)c3)cs2)cc1` as the compound, how does the Potency read?
Its Potency is “inactive”.

Which Potency does the source give for `Brc1ccc(CSc2ncn[nH]2)cc1` here?
The Potency was inconclusive [activator, partial curve].

With `COc1ccnc2c1c(=O)n(Cc1cccc(Cl)c1)c(=O)n2C` as the compound, how does the Potency read?
The Potency was inconclusive [activator, partial curve].

For `CC1CN(Cc2ccccc2)c2ccccc2NC1=S` (stereo not drawn), which Potency is on record?
Its Potency is inconclusive [activator, single point].

Which Potency does the source give for `O=C1[C@@H]2CSC(c3ccc(F)cc3)N2C(=O)N1c1ccc(Cl)cc1` (stereo partly drawn) here?
The Potency was active: 14.1 µM.

Which Potency does the source give for `O=C(/C=C/Nc1ccc(F)cc1F)c1cccs1` here?
The Potency was inconclusive [activator, single point].

With `Nc1ncc(S(=O)(=O)NCc2cccc(Cl)c2)cn1` as the compound, how does the Potency read?
The Potency was “inactive”.

With `CCOC(=O)c1sc(NC(=O)c2c(C)nn(Cc3ccccc3)c2C)cc1C` as the compound, how does the Potency read?
Its Potency is inconclusive [activator, single point].

For `CCOc1cc(C(=O)Nc2ccc(-c3nc4cc(C)ccc4o3)cc2)cc(OCC)c1OCC`, which Potency is on record?
Its Potency is inconclusive [activator, single point].

Which Potency does the source give for `Cc1nonc1NC(=O)Nc1cccnc1` here?
The Potency was inconclusive [activator, partial curve].

For `CC(=O)c1ccc(NC(=O)c2ccc(CSc3ccccc3)o2)cc1`, which Potency is on record?
The Potency was active: 15.8 µM.

Which Potency does the source give for `COc1ccc(OCc2nn3c(-c4ccccn4)nnc3s2)cc1` here?
The Potency was inconclusive [activator, single point].

With `CC(=O)c1cc(-c2ccc(F)cc2)n(CCC(=O)NCc2ccccc2C)c1C` as the compound, how does the Potency read?
The Potency was inconclusive [activator, full curve].

Which Potency does the source give for `COc1ccccc1CNC(=O)C(=O)NCC(c1cccs1)S(=O)(=O)c1ccc(F)cc1` (stereo not drawn) here?
Its Potency is “inactive”.

Which Potency does the source give for `COc1ccc(-c2ccc(NS(=O)(=O)c3cc([N+](=O)[O-])ccc3C)cc2)nn1` here?
The Potency was inconclusive [activator, single point].

For `Oc1c(C(c2ccccc2)N2CCN(Cc3ccccc3)CC2)sc2nc(-c3ccco3)nn12` (stereo not drawn), which Potency is on record?
Its Potency is “inactive”.

With `CSc1nc2ccccc2n1Cc1cccc([N+](=O)[O-])c1` as the compound, how does the Potency read?
Its Potency is “inactive”.

For `Cc1csc2nc(COC(=O)c3ccc(NC(=O)COc4ccccc4F)cc3)cc(=O)n12`, which Potency is on record?
Its Potency is inconclusive [activator, single point].

For `Cn1nc(C(=O)OCC(=O)Nc2ccc(SC(F)F)cc2)c2ccccc2c1=O`, which Potency is on record?
Its Potency is inconclusive [activator, single point].

With `CCCCn1c(=O)n(-c2ccc(Br)cc2F)c(=O)c2c3c(sc21)CN(C(C)=O)CC3` as the compound, how does the Potency read?
Its Potency is inconclusive [activator, partial curve].

For `COc1ccc(-c2csc(Nc3ccccc3)[n+]2CC(O)c2ccc([N+](=O)[O-])cc2)cc1` (stereo not drawn), which Potency is on record?
The Potency was inconclusive [activator, partial curve, poor fit].

Which Potency does the source give for `Brc1ccc(-c2nc(-c3ccccc3)no2)o1` here?
The Potency was inconclusive [activator, full curve].

With `CCOC(=O)c1cccc(NC(=O)C2CCCN(S(=O)(=O)c3cnc[nH]3)C2)c1` (stereo not drawn) as the compound, how does the Potency read?
The Potency was inconclusive [activator, full curve, poor fit].

Which Potency does the source give for `CCCOc1ccc(C(=O)NC(=S)NNC(=O)c2c(-c3ccccc3)noc2C)cc1` here?
The Potency was inconclusive [activator, single point].

Which Potency does the source give for `CCOC(=O)c1cc(CC)sc1NC(=O)c1cc(OCC)c(OCC)c(OCC)c1` here?
The Potency was “inactive”.

With `Cc1ccc(OCC(=O)Nc2c(C(=O)c3ccccc3)oc3ccccc23)cc1C` as the compound, how does the Potency read?
The Potency was inconclusive [activator, full curve, poor fit].

With `CCOC(=O)c1ccc(NC(=O)C2CCCN(S(=O)(=O)c3cnc[nH]3)C2)cc1` (stereo not drawn) as the compound, how does the Potency read?
The Potency was inconclusive [activator, partial curve].

Which Potency does the source give for `Cc1ccc(SCC(=O)Nc2cc(C)on2)cc1` here?
The Potency was inconclusive [activator, partial curve].

With `O=C(O)c1ccccc1OCCOc1ccccc1` as the compound, how does the Potency read?
The Potency was inconclusive [activator, single point].

Which Potency does the source give for `O=C(NC1CCCC1)c1cc(-c2ccccc2)nc2ccccc12` here?
Its Potency is “inactive”.

Which Potency does the source give for `Cc1ccc(NCc2cccn2-c2nnc(N3CCCCCC3)s2)cc1` here?
Its Potency is “inactive”.

With `CC(=O)c1cc(CN2CCN(CCC(C)C)C(CCO)C2)cs1` (stereo not drawn) as the compound, how does the Potency read?
Its Potency is inconclusive [activator, single point].

Which Potency does the source give for `COc1ccc(N=N/C(=C\O)C(=O)c2ccco2)cc1` here?
The Potency was inconclusive [activator, partial curve].

Which Potency does the source give for `COc1ccc(NC(=O)Cn2c(SCc3cccc(Cl)c3)nc3ccncc32)c(OC)c1OC` here?
Its Potency is “inactive”.

Which Potency does the source give for `COc1cc(Cl)c(C)cc1NC(=O)CCc1nc2cccnc2n1-c1ccccc1` here?
The Potency was “inactive”.

For `CCOC(=O)c1ccc(NC(=O)CSc2nnnn2CCCO)cc1`, which Potency is on record?
Its Potency is inconclusive [activator, partial curve, poor fit].

For `CCOc1ccc2nc(N3CCN(C(=O)CS(=O)(=O)c4ccc(F)cc4)CC3)sc2c1`, which Potency is on record?
The Potency was inconclusive [activator, partial curve].

Which Potency does the source give for `CC1Cc2ccccc2N1C(=O)c1cc2c(=O)n3ccccc3nc2n1C` (stereo not drawn) here?
The Potency was inconclusive [activator, full curve].

Reference: PubChem BioAssay AID652104 (National Center for Advancing Translational Sciences (NCATS), 2013)
